Experimental data from PubChem BioAssay AID651820 (National Center for Advancing Translational Sciences (NCATS), 2012).
The whole screen tested about 340,000 compounds, of which about 12,000 (3.5%) were called active. Inconclusive results, whose numbers are uncertain, are shown with a selection of clear calls. Calls come from the whole dose curve; as a rule, active = well fitted inhibition curve with a large enough effect; inconclusive = small, poorly fitted or top-dose-only effect, or another doubt; inactive = no such curve, though single readings can be large or run the other way. No potency is given beside an inconclusive call; the fits are too rough.
% is set by controls: 0 for no effect and ±100 for the full control effect; potency is the fitted concentration of half-maximal effect; tags give direction and shape of the fitted curve.

Assay: qHTS Assay for Inhibitors of Hepatitis C Virus (HCV)
Details: Huh7.5.1 HCVcc-Cre (HCVcc is cell-culture hepatitis C virus) infection, luciferase reporter, 44 h; activity change, negative = inhibition: at 41.8 µM (top of the series) unless noted
Method in brief: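 Infectious HCV cell culture screen: compound-treated cells (1,000/well, pre-plated 4 h) are infected with HCVcc-Cre at roughly 0.5 moi and grown 44 h. Infection is quantified by luciferase signal after 15 min substrate incubation at room temperature.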
With `Cc1ccc(-c2cc(Cc3ccc(N(C)C)cc3)c(=O)[nH]n2)cc1` the Potency was inconclusive [inhibitor, single point].
In the case of `O=C1c2ccccc2C(=O)c2c1ncn2-c1ccccc1`, the Potency was inconclusive [inhibitor, single point].
With `CC1(C)Cc2nc3nc(SCC(=O)Nc4ccccc4)nc(N)c3cc2CO1` the Potency was inconclusive [inhibitor, partial curve].
For `Nc1ccccc1N=c1ssnc1Cl`, the Potency was inconclusive [inhibitor, single point].
For `O=C(NCCCn1ccnc1)c1cc(-c2cccs2)on1`, the Potency was inconclusive [inhibitor, single point].
In the case of `CCN(CC(=O)Nc1ccc2c(c1)OCCO2)c1nc(-c2cccnc2)nc2ccccc12`, the Potency was inconclusive [inhibitor, partial curve].
With `CCC1C(c2cc(OC)c(OC)c(OC)c2)c2cc3c(cc2OC1N1CCCC1)OCO3` (stereo not drawn) the Potency was inconclusive [inhibitor, full curve, poor fit].
For `CCc1ccc(C(C(=O)NC2CCCC2)N(C(=O)/C=C/C(=O)Nc2cc(C)on2)c2ccccc2C)cc1` (stereo not drawn), the Potency was inconclusive [inhibitor, partial curve].
For `Cc1cc(C)c(C)c(S(=O)(=O)N2CCC(C(=O)Nc3ccc(S(=O)(=O)N4CCOCC4)cc3)CC2)c1C`, the Potency was inconclusive [inhibitor, partial curve].
In the case of `COc1ccc(OC)c(-c2csc(NC(=O)Cc3ccc(F)cc3)n2)c1`, the Potency was inconclusive [inhibitor, partial curve].
With `COc1ccc2nc(NC(=O)CSCc3c(C)noc3C)sc2c1` the Potency was inconclusive [inhibitor, single point].
With `CCOC(=O)c1sc(=NC(=O)COc2ccc(Cl)cc2)n(C)c1C` the “activity change, negative = inhibition” value was inactive: 0.927%.
In the case of `CCOc1ccc(Nc2cc(C)nc3nc(C)nn23)cc1`, the activity change, negative = inhibition was inactive: 5.41% [at 8.37 µM].
In the case of `Cc1ccc(/C=N/Nc2ccc(Cl)nn2)cc1`, the “activity change, negative = inhibition” value was inactive: 5.85%.
For `Cc1ccc(NC(=O)[C@H](Cc2c[nH]c3ccccc23)NC(=O)[C@@H]2Cc3ccccc3CN2)c(C)c1`, the Potency was inconclusive [inhibitor, partial curve].
In the case of `Cc1cc(O)c(C(C)C)cc1NC(=O)Nc1ccc([N+](=O)[O-])cc1`, the Potency was inconclusive [inhibitor, single point].
In the case of `O=C(Nc1ccccc1N1CCCC1)C1CCN(C(=O)c2ccc(Cl)cc2)CC1`, the Potency was inconclusive [inhibitor, single point].
With `COC(=O)c1ccccc1OCC(=O)NC1CCCCC1` the Potency was inconclusive [inhibitor, single point].
